Experimental data reported in the supplement of paper PMC8728848.
The list shows a part of the results.

How the values were obtained:
Test in all cases: glycan array binding signal (z-score within array); higher = stronger binding
Settings in all cases: glycan notation: IUPAC condensed, linker removed
Gal(a1-6)Glc = biological target: Gal(a1-6)Glc
How it was run: (§1)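 The binding signal is a Z-score computed within each array. Data were drawn from 3228 arrays in the Consortium for Functional Glycomics database, restricted to those with a known protein sequence. Scores were averaged over arrays of the same protein sequence at different concentrations or buffers, and over linkers, and negative values can be taken as non-binding.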

Gal(b1-2)Gal = biological target: Gal(b1-2)Gal
How it was run: as §1

Gal(b1-3)Gal = biological target: Gal(b1-3)Gal
How it was run: as §1

Gal(b1-3)Gal(b1-4)GlcNAc = biological target: Gal(b1-3)Gal(b1-4)GlcNAc
How it was run: as §1

Gal(b1-3)GalNAc = biological target: Gal(b1-3)GalNAc
How it was run: as §1

[1] = biological target: Gal(b1-3)GalNAc(a1-3)[Fuc(a1-2)]Gal(b1-4)Glc
How it was run: as §1

[2] = biological target: Gal(b1-3)GalNAc(a1-3)[Fuc(a1-2)]Gal(b1-4)GlcNAc
How it was run: as §1

Gal(b1-3)GalNAc(b1-3)Gal = biological target: Gal(b1-3)GalNAc(b1-3)Gal
How it was run: as §1

[3] = biological target: Gal(b1-3)GalNAc(b1-3)Gal(a1-4)Gal(b1-4)Glc
How it was run: as §1

[4] = biological target: Gal(b1-3)GalNAc(b1-4)Gal(b1-4)Glc
How it was run: as §1

[5] = biological target: Gal(b1-3)GalNAc(b1-4)[Neu5Ac(a2-3)]Gal(b1-4)Glc
How it was run: as §1

Gal(b1-3)GlcNAc = biological target: Gal(b1-3)GlcNAc
How it was run: as §1

[6] = biological target: Gal(b1-3)GlcNAc(a1-3)Gal(b1-4)GlcNAc
How it was run: as §1

[7] = biological target: Gal(b1-3)GlcNAc(a1-6)Gal(b1-4)GlcNAc
How it was run: as §1

Gal(b1-3)GlcNAc(b1-2)Man = biological target: Gal(b1-3)GlcNAc(b1-2)Man
How it was run: as §1

[8] = biological target: Gal(b1-3)GlcNAc(b1-2)Man(a1-3)[Gal(b1-3)GlcNAc(b1-2)Man(a1-6)]Man(b1-4)GlcNAc(b1-4)GlcNAc
How it was run: as §1

[9] = biological target: Gal(b1-3)GlcNAc(b1-2)Man(a1-3)[Gal(b1-3)GlcNAc(b1-2)Man(a1-6)]Man(b1-4)GlcNAc(b1-4)[Fuc(a1-6)]GlcNAc
How it was run: as §1

[10] = biological target: Gal(b1-3)GlcNAc(b1-2)Man(a1-3)[GlcNAc(b1-4)][Gal(b1-3)GlcNAc(b1-2)Man(a1-6)]Man(b1-4)GlcNAc(b1-4)GlcNAc
How it was run: as §1

[11] = biological target: Gal(b1-3)GlcNAc(b1-2)[Gal(b1-3)GlcNAc(b1-6)]Man(a1-6)[Gal(b1-3)GlcNAc(b1-2)Man(a1-3)]Man(b1-4)GlcNAc(b1-4)GlcNAc
How it was run: as §1

[12] = biological target: Gal(b1-3)GlcNAc(b1-3)Gal(b1-3)GlcNAc
How it was run: as §1

[13] = biological target: Gal(b1-3)GlcNAc(b1-3)Gal(b1-4)Glc
How it was run: as §1

[14] = biological target: Gal(b1-3)GlcNAc(b1-3)Gal(b1-4)GlcNAc
How it was run: as §1

[15] = biological target: Gal(b1-3)GlcNAc(b1-3)Gal(b1-4)GlcNAc(b1-2)Man(a1-3)[Gal(b1-3)GlcNAc(b1-3)Gal(b1-4)GlcNAc(b1-2)Man(a1-6)]Man(b1-4)GlcNAc(b1-4)GlcNAc
How it was run: as §1

[16] = biological target: Gal(b1-3)GlcNAc(b1-3)Gal(b1-4)GlcNAc(b1-2)[Gal(b1-3)GlcNAc(b1-3)Gal(b1-4)GlcNAc(b1-6)]Man(a1-6)[Gal(b1-3)GlcNAc(b1-3)Gal(b1-4)GlcNAc(b1-2)Man(a1-3)]Man(b1-4)GlcNAc(b1-4)[Fuc(a1-6)]GlcNAc
How it was run: as §1

[17] = biological target: Gal(b1-3)GlcNAc(b1-3)Gal(b1-4)GlcNAc(b1-3)Gal(b1-4)GlcNAc(b1-2)[Gal(b1-3)GlcNAc(b1-3)Gal(b1-4)GlcNAc(b1-3)Gal(b1-4)GlcNAc(b1-6)]Man(a1-6)[Gal(b1-3)GlcNAc(b1-3)Gal(b1-4)GlcNAc(b1-3)Gal(b1-4)GlcNAc(b1-2)Man(a1-3)]Man(b1-4)GlcNAc(b1-4)[Fuc(a1-6)]GlcNAc
How it was run: as §1

[18] = biological target: Gal(b1-3)GlcNAc(b1-3)Gal(b1-4)GlcNAc(b1-6)[Gal(b1-3)GlcNAc(b1-3)]Gal(b1-4)Glc
How it was run: as §1

[19] = biological target: Gal(b1-3)GlcNAc(b1-3)Gal(b1-4)[Fuc(a1-3)]GlcNAc
How it was run: as §1

[20] = biological target: Gal(b1-3)GlcNAc(b1-3)Gal(b1-4)[Fuc(a1-3)]GlcNAc(b1-6)[Gal(b1-3)GlcNAc(b1-3)]Gal(b1-4)Glc
How it was run: as §1

[21] = biological target: Gal(b1-3)GlcNAc(b1-3)GalNAc
How it was run: as §1

[22] = biological target: Gal(b1-3)GlcNAc(b1-6)Gal(b1-4)GlcNAc
How it was run: as §1

[23] = biological target: Gal(b1-3)GlcNAc(b1-6)GalNAc
How it was run: as §1

[24] = biological target: Gal(b1-3)GlcNAc(b1-6)[Gal(b1-3)]GalNAc
How it was run: as §1

Gal(b1-3)GlcNAc6S = biological target: Gal(b1-3)GlcNAc6S
How it was run: as §1

[25] = biological target: Gal(b1-3)[Fuc(a1-4)]GlcNAc
How it was run: as §1

[26] = biological target: Gal(b1-3)[Fuc(a1-4)]GlcNAc(b1-2)Man
How it was run: as §1

[27] = biological target: Gal(b1-3)[Fuc(a1-4)]GlcNAc(b1-2)Man(a1-3)[Gal(b1-3)[Fuc(a1-4)]GlcNAc(b1-2)Man(a1-6)]Man(b1-4)GlcNAc(b1-4)[Fuc(a1-6)]GlcNAc
How it was run: as §1

[28] = biological target: Gal(b1-3)[Fuc(a1-4)]GlcNAc(b1-3)Gal(b1-3)[Fuc(a1-4)]GlcNAc
How it was run: as §1

[29] = biological target: Gal(b1-3)[Fuc(a1-4)]GlcNAc(b1-3)Gal(b1-4)[Fuc(a1-3)]GlcNAc
How it was run: as §1

[30] = biological target: Gal(b1-3)[Fuc(a1-4)]GlcNAc(b1-6)GalNAc
How it was run: as §1

[31] = biological target: Gal(b1-3)[GlcNAc(b1-6)]GalNAc
How it was run: as §1

[32] = biological target: Gal(b1-3)[Neu5Ac(a2-6)]GalNAc
How it was run: as §1

[33] = biological target: Gal(b1-3)[Neu5Ac(a2-6)]GlcNAc(b1-4)Gal(b1-4)Glc
How it was run: as §1

[34] = biological target: Gal(b1-3)[Neu5Ac(b2-6)]GalNAc
How it was run: as §1

Gal(b1-4)Gal = biological target: Gal(b1-4)Gal
How it was run: as §1

[35] = biological target: Gal(b1-4)GalNAc(a1-3)[Fuc(a1-2)]Gal(b1-4)GlcNAc
How it was run: as §1

B1: Clec2 (Mus musculus), Q9JL99 (protein)
chain: MQDEDGYITLNIKPRKQALSSAEPASSWWRVMALVLLISSMGLVVGLVALGIMSVTQQKYLLAEKENLSATLQQLAKKFCQELIRQSEIKTKSTFEHKCSPCATKWRYHGDSCYGFFRRNLTWEESKQYCTEQNATLVKTASQSTLDYIAERITSVRWIGLSRQNSKKDWMWEDSSVLRKNGINLSGNTEENMNCAYLHNGKIHPASCKERHYLICERNAGMTRVDQLL
B1 was tested, and the “glycan array binding signal (z-score)” value (Gal(a1-6)Glc) was -0.101, the “glycan array binding signal (z-score)” value (Gal(b1-2)Gal) was 1.32 and the “glycan array binding signal (z-score)” value (Gal(b1-3)Gal) was 0.682. For the same binder, the “glycan array binding signal (z-score)” value (Gal(b1-3)Gal(b1-4)GlcNAc) was -0.532, the “glycan array binding signal (z-score)” value (Gal(b1-3)GalNAc) was -0.172 and the “glycan array binding signal (z-score)” value [1] was -0.302. The “glycan array binding signal (z-score)” value [2] was -0.939, the “glycan array binding signal (z-score)” value (Gal(b1-3)GalNAc(b1-3)Gal) was -0.572 and the “glycan array binding signal (z-score)” value [3] was -0.092. The “glycan array binding signal (z-score)” value [4] was -0.614, the “glycan array binding signal (z-score)” value [5] was 0.427 and the “glycan array binding signal (z-score)” value (Gal(b1-3)GlcNAc) was -0.105. The “glycan array binding signal (z-score)” value [6] was -0.77, the “glycan array binding signal (z-score)” value [7] was -0.846 and the “glycan array binding signal (z-score)” value (Gal(b1-3)GlcNAc(b1-2)Man) was -0.528. The “glycan array binding signal (z-score)” value [8] was 0.586, the “glycan array binding signal (z-score)” value [9] was -0.411 and the “glycan array binding signal (z-score)” value [10] was 0.239. The “glycan array binding signal (z-score)” value [11] was -0.221, the “glycan array binding signal (z-score)” value [12] was -0.763 and the “glycan array binding signal (z-score)” value [13] was 0.433. For the same binder, the “glycan array binding signal (z-score)” value [14] was -0.539, the “glycan array binding signal (z-score)” value [15] was -0.412 and the “glycan array binding signal (z-score)” value [16] was 0.532. For the same binder, the “glycan array binding signal (z-score)” value [17] was 0.461, the “glycan array binding signal (z-score)” value [18] was -0.864 and the “glycan array binding signal (z-score)” value [19] was -0.144. The “glycan array binding signal (z-score)” value [20] was -0.993, the “glycan array binding signal (z-score)” value [21] was -0.491 and the “glycan array binding signal (z-score)” value [22] was -0.516. The “glycan array binding signal (z-score)” value [23] was -0.97, the “glycan array binding signal (z-score)” value [24] was -0.405 and the “glycan array binding signal (z-score)” value (Gal(b1-3)GlcNAc6S) was 0.428. The “glycan array binding signal (z-score)” value [25] was -0.27, the “glycan array binding signal (z-score)” value [26] was 3.5 and the “glycan array binding signal (z-score)” value [27] was 0.491. The “glycan array binding signal (z-score)” value [28] was -0.485, the “glycan array binding signal (z-score)” value [29] was -0.61 and the “glycan array binding signal (z-score)” value [30] was -0.199. The “glycan array binding signal (z-score)” value [31] was -0.574, the “glycan array binding signal (z-score)” value [32] was 0.483 and the “glycan array binding signal (z-score)” value [33] was 0.005. For the same binder, the “glycan array binding signal (z-score)” value [34] was -0.745, the “glycan array binding signal (z-score)” value (Gal(b1-4)Gal) was 0.224 and the “glycan array binding signal (z-score)” value [35] was -0.859.
